# Measurements reported in the supplement of paper PMC10037445.
# Over roughly 2,900 compounds, “NF-kB SEAP reporter activity, fold change vs agonist alone” has its median near 0.99; the highest 2% begin near 2.6. Some of the results follow.
# What was measured:
# [1] = test system: RAW-Dual; experiment: NF-kB SEAP reporter activity, fold change vs agonist alone; cytotoxicity flag (confluency mask): not cytotoxic; higher = enhanced NF-kB activity
# In short: (§1)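 Supernatant from RAW-Dual macrophages was read after 20 hours for IRF by QuantiLuc luminescence and for NF-κB by QuantiBlue absorbance at 620 nm. The cells (50,000 cells/well in DMEM, 384-well plates, 37 °C, 5% CO2) had received 50 nL of library stock by pin tool and, 1 h later, a PRR agonist. Reporter activity is expressed relative to agonist-alone wells as fold change, and wells were flagged cytotoxic if IncuCyte confluency was under 70% of agonist controls in both mask sets.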
# [2] = test system: RAW-Dual; experiment: NF-kB SEAP reporter activity, fold change vs agonist alone; higher = enhanced NF-kB activity
# In short: as §1
# [3] = test system: RAW-Dual; experiment: NF-kB SEAP reporter activity, fold change vs agonist alone; cytotoxicity flag (confluency mask): cytotoxic (confluency <70% of control); higher = enhanced NF-kB activity
# In short: as §1
# [4] = agonist: ODN 1826 (TLR9) 0.5 ug/mL
# [5] = agonist: Pam2CSK4 (TLR2/6) 0.1 ug/mL
# [6] = agonist: Pam3CSK4 (TLR2/1) 0.1 ug/mL
# [7] = library stock concentration (final ~1000-fold dilution): 10 mM, cytotoxicity flag (confluency mask): not cytotoxic, agonist: Imiquimod (TLR7) […]
# [8] = library stock concentration (final ~1000-fold dilution): 10 mM, cytotoxicity flag (confluency mask): not cytotoxic, agonist: MPLA (TLR4) […]
# [9] = library stock concentration (final ~1000-fold dilution): 10 mM, cytotoxicity flag (confluency mask): cytotoxic (confluency <70% of control), agonist: Imiquimod (TLR7) […]
# [10] = library stock concentration (final ~1000-fold dilution): 10 mM, cytotoxicity flag (confluency mask): cytotoxic (confluency <70% of control), agonist: MPLA (TLR4) […]
smiles,measurement,setting,value
Cl.N=C(N)NCCCCC(N)C(=O)O (stereo not given) (library stock concentration (final ~1000-fold dilution): 10 mM water),NF-kB SEAP reporter activity,[1]; agonist: LPS (TLR4) 0.1 ug/mL,1.17
same,NF-kB SEAP reporter activity,[1]; [4],1.12
same,NF-kB SEAP reporter activity,[1]; [5],1.21
same,NF-kB SEAP reporter activity,[1]; [6],0.923
Cl.N=C(N)NCCCCC(N)C(=O)O (stereo not given),NF-kB SEAP reporter activity,"[2]; library stock concentration (final ~1000-fold dilution): 10 mM water, cytotoxicity flag (confluency mask): not cytotoxic, agonist: MPLA (TLR4) […]",1.08
CC(C(=O)Nc1ccc(Cl)cc1)C1CCC(c2ccnc3ccc(F)cc23)CC1 (stereo not given) (library stock concentration (final ~1000-fold dilution): 10 mM),NF-kB SEAP reporter activity,[1]; agonist: LPS (TLR4) 0.1 ug/mL,0.974
same,NF-kB SEAP reporter activity,[1]; [4],1.05
same,NF-kB SEAP reporter activity,[1]; [5],0.52
same,NF-kB SEAP reporter activity,[1]; [6],0.738
CC(C(=O)Nc1ccc(Cl)cc1)C1CCC(c2ccnc3ccc(F)cc23)CC1 (stereo not given),NF-kB SEAP reporter activity,[2]; [7],1.51
same,NF-kB SEAP reporter activity,[2]; [8],1.55
COc1cc2c(cc1OC)C(=O)C(CC1CCN(Cc3ccccc3)CC1)C2 (stereo not given) (library stock concentration (final ~1000-fold dilution): 10 mM),NF-kB SEAP reporter activity,[1]; agonist: LPS (TLR4) 0.1 ug/mL,0.889
same,NF-kB SEAP reporter activity,[1]; [4],1.27
same,NF-kB SEAP reporter activity,[1]; [5],0.995
same,NF-kB SEAP reporter activity,[1]; [6],0.885
COc1cc2c(cc1OC)C(=O)C(CC1CCN(Cc3ccccc3)CC1)C2 (stereo not given),NF-kB SEAP reporter activity,[2]; [8],1.14
Cc1cc(N2CCCCC2)nc2ccccc12 (library stock concentration (final ~1000-fold dilution): 10 mM),NF-kB SEAP reporter activity,[1]; agonist: LPS (TLR4) 0.1 ug/mL,1.39
same,NF-kB SEAP reporter activity,[1]; [4],1.05
same,NF-kB SEAP reporter activity,[1]; [5],1.08
same,NF-kB SEAP reporter activity,[1]; [6],1.36
Cc1cc(N2CCCCC2)nc2ccccc12,NF-kB SEAP reporter activity,[2]; [7],0.896
same,NF-kB SEAP reporter activity,[2]; [8],1.21
C[C@@H](O)CCOC(=O)C[C@@H](C)O,NF-kB SEAP reporter activity,[2]; [7],0.899
same,NF-kB SEAP reporter activity,[2]; [8],1.02
C[C@@H](O)CCOC(=O)C[C@@H](C)O (library stock concentration (final ~1000-fold dilution): 10 mM),NF-kB SEAP reporter activity,[1]; agonist: LPS (TLR4) 0.1 ug/mL,0.864
same,NF-kB SEAP reporter activity,[1]; [4],0.931
same,NF-kB SEAP reporter activity,[1]; [5],0.907
same,NF-kB SEAP reporter activity,[1]; [6],0.844
Cc1cc(C)cc(Oc2ccc(CNC(=O)C(C)N)cc2C)c1 (stereo not given),NF-kB SEAP reporter activity,[2]; [7],1.24
same,NF-kB SEAP reporter activity,[2]; [8],1.3
Cc1cc(C)cc(Oc2ccc(CNC(=O)C(C)N)cc2C)c1 (stereo not given) (library stock concentration (final ~1000-fold dilution): 10 mM),NF-kB SEAP reporter activity,[1]; agonist: LPS (TLR4) 0.1 ug/mL,1.3
same,NF-kB SEAP reporter activity,[1]; [4],0.9
same,NF-kB SEAP reporter activity,[1]; [5],0.484
same,NF-kB SEAP reporter activity,[1]; [6],0.732
O=C(O)CCc1c[nH]c2ccccc12 (library stock concentration (final ~1000-fold dilution): 10 mM),NF-kB SEAP reporter activity,[1]; agonist: LPS (TLR4) 0.1 ug/mL,1.08
same,NF-kB SEAP reporter activity,[1]; [4],1.06
same,NF-kB SEAP reporter activity,[1]; [5],1.03
same,NF-kB SEAP reporter activity,[1]; [6],0.898
O=C(O)CCc1c[nH]c2ccccc12,NF-kB SEAP reporter activity,[2]; [7],0.934
same,NF-kB SEAP reporter activity,[2]; [8],0.964
CC1(COc2ccc3c(c2)ncn3-c2ccc3cccc(N4CCC(N)CC4)c3n2)COC1,NF-kB SEAP reporter activity,[2]; [9],2.9
same,NF-kB SEAP reporter activity,[2]; [10],1.43
CC1(COc2ccc3c(c2)ncn3-c2ccc3cccc(N4CCC(N)CC4)c3n2)COC1 (library stock concentration (final ~1000-fold dilution): 10 mM),NF-kB SEAP reporter activity,[3]; agonist: LPS (TLR4) 0.1 ug/mL,0.769
same,NF-kB SEAP reporter activity,[3]; [4],1.59
same,NF-kB SEAP reporter activity,[3]; [5],1.81
same,NF-kB SEAP reporter activity,[3]; [6],1.6
COc1ccccc1-c1cc(Nc2cccc(CS(N)(=O)=O)c2)ncn1 (library stock concentration (final ~1000-fold dilution): 10 mM),NF-kB SEAP reporter activity,[1]; agonist: LPS (TLR4) 0.1 ug/mL,2.67
COc1ccccc1-c1cc(Nc2cccc(CS(N)(=O)=O)c2)ncn1,NF-kB SEAP reporter activity,[2]; [8],2.59
COc1ccc(S(=O)(=O)Nc2nc(-c3cccc([N+](=O)[O-])c3)cs2)cc1OC (library stock concentration (final ~1000-fold dilution): 10 mM),NF-kB SEAP reporter activity,[1]; agonist: LPS (TLR4) 0.1 ug/mL,0.818
same,NF-kB SEAP reporter activity,[1]; [4],0.822
same,NF-kB SEAP reporter activity,[1]; [5],1
same,NF-kB SEAP reporter activity,[1]; [6],1.02
COc1ccc(S(=O)(=O)Nc2nc(-c3cccc([N+](=O)[O-])c3)cs2)cc1OC,NF-kB SEAP reporter activity,[2]; [7],0.988
same,NF-kB SEAP reporter activity,[2]; [8],0.991
CCCCCC/C=C\CCCCCCCc1cccc(O)c1C(=O)O,NF-kB SEAP reporter activity,[2]; [7],1.32
same,NF-kB SEAP reporter activity,[2]; [8],1.37
CCCCCC/C=C\CCCCCCCc1cccc(O)c1C(=O)O (library stock concentration (final ~1000-fold dilution): 10 mM),NF-kB SEAP reporter activity,[1]; agonist: LPS (TLR4) 0.1 ug/mL,0.988
same,NF-kB SEAP reporter activity,[1]; [4],0.984
same,NF-kB SEAP reporter activity,[1]; [5],0.671
same,NF-kB SEAP reporter activity,[1]; [6],0.914
CCOC(=O)C(CCc1ccccc1)NC1CCc2ccccc2N(CC(=O)O)C1=O (stereo not given),NF-kB SEAP reporter activity,[2]; [7],0.982
same,NF-kB SEAP reporter activity,[2]; [8],1.04
CCOC(=O)C(CCc1ccccc1)NC1CCc2ccccc2N(CC(=O)O)C1=O (stereo not given) (library stock concentration (final ~1000-fold dilution): 10 mM),NF-kB SEAP reporter activity,[1]; agonist: LPS (TLR4) 0.1 ug/mL,1.25
same,NF-kB SEAP reporter activity,[1]; [4],1.03
same,NF-kB SEAP reporter activity,[1]; [5],1.04
same,NF-kB SEAP reporter activity,[1]; [6],1.05
CN(C)CCCN1c2ccccc2Sc2ccc(Cl)cc21.Cl,NF-kB SEAP reporter activity,[2]; [7],0.888
same,NF-kB SEAP reporter activity,[2]; [8],0.929
CN(C)CCCN1c2ccccc2Sc2ccc(Cl)cc21.Cl (library stock concentration (final ~1000-fold dilution): 10 mM),NF-kB SEAP reporter activity,[1]; agonist: LPS (TLR4) 0.1 ug/mL,2.03
same,NF-kB SEAP reporter activity,[1]; [4],0.923
same,NF-kB SEAP reporter activity,[1]; [5],0.652
same,NF-kB SEAP reporter activity,[1]; [6],0.962
O=C(C=Cc1ccc(O)cc1)c1ccc(O)cc1O,NF-kB SEAP reporter activity,[2]; [7],1.22
same,NF-kB SEAP reporter activity,[2]; [8],1.42
O=C(C=Cc1ccc(O)cc1)c1ccc(O)cc1O (library stock concentration (final ~1000-fold dilution): 10 mM),NF-kB SEAP reporter activity,[1]; agonist: LPS (TLR4) 0.1 ug/mL,1.05
same,NF-kB SEAP reporter activity,[1]; [4],1.02
same,NF-kB SEAP reporter activity,[1]; [5],1.36
same,NF-kB SEAP reporter activity,[1]; [6],1.34
CN(C)c1ccc2nc3ccc(=[N+](C)C)cc-3sc2c1 (library stock concentration (final ~1000-fold dilution): 10 mM),NF-kB SEAP reporter activity,[3]; agonist: LPS (TLR4) 0.1 ug/mL,2.45
same,NF-kB SEAP reporter activity,[3]; [4],2.01
same,NF-kB SEAP reporter activity,[3]; [5],1.23
same,NF-kB SEAP reporter activity,[3]; [6],1.33
CN(C)c1ccc2nc3ccc(=[N+](C)C)cc-3sc2c1,NF-kB SEAP reporter activity,[2]; [9],2.38
same,NF-kB SEAP reporter activity,[2]; [10],2.29
COc1cc(/C=C/C(=O)N2CCC=CC2=O)cc(OC)c1OC,NF-kB SEAP reporter activity,[2]; [9],0.147
same,NF-kB SEAP reporter activity,[2]; [10],0.272
same,NF-kB SEAP reporter activity,[2]; [7],0.213
same,NF-kB SEAP reporter activity,[2]; [8],0.229
COc1cc(/C=C/C(=O)N2CCC=CC2=O)cc(OC)c1OC (library stock concentration (final ~1000-fold dilution): 10 mM),NF-kB SEAP reporter activity,[1]; agonist: LPS (TLR4) 0.1 ug/mL,0.2
same,NF-kB SEAP reporter activity,[1]; [4],0.269
same,NF-kB SEAP reporter activity,[1]; [5],0.0785
same,NF-kB SEAP reporter activity,[1]; [6],0.14
same,NF-kB SEAP reporter activity,[3]; agonist: LPS (TLR4) 0.1 ug/mL,0.282
same,NF-kB SEAP reporter activity,[3]; [4],0.193
same,NF-kB SEAP reporter activity,[3]; [5],0.0749
same,NF-kB SEAP reporter activity,[3]; [6],0.152
CCc1nc(-c2cccc(C)c2)c(-c2ccnc(NC(=O)c3ccccc3)c2)s1,NF-kB SEAP reporter activity,[2]; [7],0.743
same,NF-kB SEAP reporter activity,[2]; [8],1.76
CCc1nc(-c2cccc(C)c2)c(-c2ccnc(NC(=O)c3ccccc3)c2)s1 (library stock concentration (final ~1000-fold dilution): 10 mM),NF-kB SEAP reporter activity,[1]; agonist: LPS (TLR4) 0.1 ug/mL,2.52
same,NF-kB SEAP reporter activity,[1]; [4],0.741
same,NF-kB SEAP reporter activity,[1]; [5],0.683
same,NF-kB SEAP reporter activity,[1]; [6],0.652
O=C(CCCCCCC(=O)NO)NO (library stock concentration (final ~1000-fold dilution): 10 mM),NF-kB SEAP reporter activity,[1]; agonist: LPS (TLR4) 0.1 ug/mL,3.77
O=C(CCCCCCC(=O)NO)NO,NF-kB SEAP reporter activity,[2]; [8],2.57
FC(F)(F)c1ccc(CNc2ccc(Cc3c[nH]c4ncc(Cl)cc34)cn2)cn1,NF-kB SEAP reporter activity,[2]; [7],1.05
same,NF-kB SEAP reporter activity,[2]; [8],0.645
FC(F)(F)c1ccc(CNc2ccc(Cc3c[nH]c4ncc(Cl)cc34)cn2)cn1 (library stock concentration (final ~1000-fold dilution): 10 mM),NF-kB SEAP reporter activity,[1]; agonist: LPS (TLR4) 0.1 ug/mL,0.484
same,NF-kB SEAP reporter activity,[1]; [4],0.335
same,NF-kB SEAP reporter activity,[1]; [5],0.346
same,NF-kB SEAP reporter activity,[1]; [6],0.212
